# Some of the results follow. Shown are side measurements of this screen, not its main read-out; they come without a call. Compounds called inactive in the main read-out are mostly missing here.
# Assay: beta-lactam sensitization of Mtb H37Rv, H37Rv (AID 434955);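 also: growth measured after seven days incubation then overnight dye step; 0% = bacteria only wells and 100% = bacteria with antibiotic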
# Conditions: M. tuberculosis H37Rv growth with meropenem, percent inhibition; measured here: primary screen without meropenem; at 25 µM
row,Structure (SMILES),inhibition [%]
1,COc1ccc(CC(C)CC(=O)NCCc2ccc(OC)c(OC)c2)cc1 (stereo not given),-3.03
2,CN(C)c1cccc2c1c(NS(=O)(=O)c1cn(C)cn1)nn2C,1.82
3,Cn1nnnc1Sc1ncnc2scc(-c3ccccc3)c12,15.1
4,C=C(C)C1Cc2c(C)nn(-c3cccc4ccccc34)c2C1 (stereo not given),40.9
5,O=C(COc1ccccc1Cl)N1CCN(c2ncccn2)CC1,-0.7
6,Cc1cc(C)c(-c2c(O)c3ccccc3n(C)c2=O)c(C)c1,-1.69
7,Cc1cc(C)cc(C(=O)N2CCC(CCC(=O)NC3CC3)CC2)c1,-0.23
8,Cc1ccc(Cn2nnnc2CN2CCC(n3nnc4ccccc43)CC2)cc1,61.3
9,Cc1ccc(C)c(NC(=O)Cn2nc(C)c3ccccc3c2=O)c1,1.82
10,COc1cccc(CSc2nnc(-c3ccncc3)n2N)c1,-10
11,CCCNS(=O)(=O)c1ccc(CCC(=O)N2CCC(C)CC2)cc1,6.13
12,COc1ccccc1NC(=O)C(C)n1cnc2c(oc3nc4c(cc32)CCCC4)c1=O (stereo not given),-3.83
13,Cc1c(C(=O)OCC(C)C)[nH]c2c1C(=O)CC(c1ccco1)C2 (stereo not given),-3.43
14,Cc1ccccc1CS(=O)(=O)Cc1ccc(C(=O)NCCCN2CCCC2=O)o1,-8.77
15,Cn1cc(CN2CCCC(CNS(=O)(=O)c3cccc4cccnc34)C2)cn1 (stereo not given),8.97
16,COc1ccc(CN2C(=O)c3cccnc3C2=O)cc1S(=O)(=O)N1CCOc2ccc(Cl)cc21,-4.32
17,O=C(Oc1cccc(C(=S)N2CCOCC2)c1)c1cccc(Cl)c1,8.7
18,CCOc1ccc(N(CC(=O)NCCSCc2ccccc2Cl)S(C)(=O)=O)cc1,-1.02
19,Cc1cccc(NC(=O)c2cccc(N3C(=O)C4C5C=CC(C6CC56)C4C3=O)c2)c1 (stereo not given),3.22
20,CCSc1nc(N)c2c3c(sc2n1)CN(C)CC3,1.74
21,CCC(C)[C@H](NC(=O)NCCCN1CCOCC1)C(=O)OC (stereo not given in full),-0.32
22,COc1ccc(Cl)cc1NC(=O)Nc1ccc(Br)cn1,5.18
23,O=C(Cc1cccc(C(F)(F)F)c1)NCc1cccnc1,-3.53
24,COc1ccc(C(=S)N2CCOCC2)cc1OS(=O)(=O)c1ccc(Br)cc1,1.21

row,Structure (SMILES),inhibition [%]
1,CCOC(=O)C1C(c2cccc(Cl)c2Cl)NC(=O)NC1(O)C(F)(F)F (stereo not given),-6.96
2,O=C(OCc1ccccc1F)c1ccc2c(c1)-c1ccccc1C2=O,4.48
3,Cc1cc(N2CCOCC2)ccc1/C=C1\NC(=O)N(CC(=O)Nc2ccccc2C)C1=O,11.1
4,O=C(COc1ccc(Cl)cc1)NN=C1CCCCCCC1,-4.25
5,CC(C)c1ccc(CNc2ncc(Br)cn2)cc1,6.24
6,CCOC(=O)c1c(N)c(C#N)cn1-c1ccccc1,-0.17
7,O=C(CCCc1ccccc1)Nc1ccnn1C1CCN(Cc2ccccn2)CC1,7.88
8,CC1Cn2c(COc3ccccc3)nnc2S1 (stereo not given),-5.95
9,Cc1csc(NC(=O)c2ccc(C)c(S(=O)(=O)N3CCCCC3)c2)n1,5
10,CC(C)(C)C1CCC(OCC(O)CN2CCN(c3ccccn3)CC2)CC1 (stereo not given),22.4
11,O=C(CSc1nnc(CNC(=O)c2ccc(F)cc2)o1)NCC1CCCO1 (stereo not given),1.53
12,Cc1cccnc1NC(=O)CCc1nnc2ccc(N3CCC4(CC3)OCCO4)nn12,-5.73
13,COc1cc(/C=C/C(=O)OCC(=O)Nc2ccc(Cl)cn2)ccc1O,51
14,CCn1cc(S(=O)(=O)c2ccc(OC)cc2)c(=O)c2cc(OC)ccc21,-3.8
15,COc1ccc(/C=N/NS(=O)(=O)c2ccc(F)cc2)cc1CN1CCSCC1,-6.01
16,CCOC(=O)C1CCCN(Cc2ccccc2OCC)C1 (stereo not given),1.5
17,Cn1cc(CN2CCC(n3nccc3NC(=O)c3ccccc3Cl)CC2)cn1,-12.4
18,COc1ccc(N(CC(=O)NCCSCc2ccccc2C)S(=O)(=O)c2ccccc2)cc1,0.48
19,O=C(COc1ccccc1F)N1CCN(S(=O)(=O)/C=C/c2ccccc2)CC1,1.2
20,COCCCN1CC(=O)N2C(c3ccc(C)cc3)c3[nH]c4ccccc4c3C[C@H]2C1=O (stereo not given in full),1.96
21,O=C1CC(Nc2ccc(N3CCOCC3)cc2)C(=O)N1C1CCCCC1 (stereo not given),26.2
22,O=C(O/N=C1/CCSc2ccccc21)c1ccc(F)cc1,94.4
23,O=C(CN1CCN(S(=O)(=O)c2ccccc2)CC1)NC(=O)NC1CCCCC1,6.21
24,Cn1c(N)c(C(=O)COC(=O)c2cc(-c3ccco3)nc3ccccc23)c(=O)n(Cc2ccccc2)c1=O,8.68

row,Structure (SMILES),inhibition [%]
1,CCc1ccc(C2CC(c3cccc(OC)c3)n3nc(N)nc3N2)cc1 (stereo not given),-0.53
2,CCc1c(C)nc(N)n2c(SCC(=O)Nc3ccccc3OC)nnc12,-2.4
3,CCOc1ccccc1-n1c(COc2ccc(C)cc2)nnc1SCC(N)=O,3.68
4,O=C(N/N=C/c1cccc(Br)c1)c1ccc(Cn2cc(Br)cn2)o1,41.5
5,C/C=C/COC(=O)c1[nH]c2c(c1C)C(=O)CC(c1ccc(N(C)C)cc1)C2 (stereo not given),66.8
6,Cc1cc(NC(=O)CSc2nnc(-c3ccco3)n2Cc2ccco2)no1,0.27
7,CCC1(CC)NC(=O)N(CC(=O)OC(C)C(=O)Nc2cc([N+](=O)[O-])ccc2OC)C1=O (stereo not given),4.86
8,CC(C)C1CC(CCNCc2ccc(N(C)C)cc2)(c2ccccc2)CCO1 (stereo not given),28.7
9,Cc1ccc(-n2c(-c3ccncc3)nnc2-c2ccco2)cc1,1.17
10,COc1ccc(C2CC(c3cccc(C)c3)n3ncnc3N2)cc1 (stereo not given),0.85
11,COC(=O)Cn1c2ccccc2c2nc(C)sc21,28.9
12,CCOC(=O)C1CCN(C(=O)CSc2cc(=O)n(CC)c3ccccc23)CC1,2.24
13,O=C(CN1C(=O)C2C3C=CC(C3)C2C1=O)OCC(=O)c1ccc(Br)cc1 (stereo not given),12.7
14,N#Cc1ccccc1NC(=O)CSc1nnc(-c2ccccc2O)n1-c1ccccc1,9.96
15,CC(Cc1ccccc1)NC(=O)CN1C(=O)c2ccccc2S1(=O)=O (stereo not given),-1.1
16,Cc1nc(SCc2cccnc2)[nH]c(=O)c1C,0.15
17,Cc1cc(C)c(C)c(S(=O)(=O)N2C(=S)NC(=O)C2C(C)C)c1C (stereo not given),18.9
18,O=C(Nc1ccc(Cl)c(Cl)c1)O/N=C/c1ccncc1,90.7
19,Cc1ccccc1C(=O)N1CCC(n2nccc2NC(=O)C2CC2)CC1,0.68
20,CCOC(=O)c1ccsc1NC(=O)CCS(=O)(=O)c1ccccc1,9.56
21,CSc1ccc(/C=C(/NC(=O)c2ccco2)C(=O)N2CCCCCC2)cc1,-8.77
22,Cc1nnc(SCc2ccc(Cl)cc2)nc1/C=C/N(C)C,19.5

# Source: PubChem BioAssay AID434955 (Southern Research Specialized Biocontainment Screening …, 2010)
